Data taken from the supplement of paper PMC3334620.
The full ranking holds about 33,000 sequences; the median of “E-score (-0.5 to 0.5)” is about -0.035, and the highest 2% start at about 0.35. Some of the results follow.

target: T1, Pdr3 (UniProt P33200); assay: PBM E-score (8-mer binding enrichment) (E-score (-0.5 to 0.5)); higher = stronger / more preferred TF binding; most listed sequences are background and not binding sites; details: protein concentration: 200 nM; construct: GST-full length
T1 sequence: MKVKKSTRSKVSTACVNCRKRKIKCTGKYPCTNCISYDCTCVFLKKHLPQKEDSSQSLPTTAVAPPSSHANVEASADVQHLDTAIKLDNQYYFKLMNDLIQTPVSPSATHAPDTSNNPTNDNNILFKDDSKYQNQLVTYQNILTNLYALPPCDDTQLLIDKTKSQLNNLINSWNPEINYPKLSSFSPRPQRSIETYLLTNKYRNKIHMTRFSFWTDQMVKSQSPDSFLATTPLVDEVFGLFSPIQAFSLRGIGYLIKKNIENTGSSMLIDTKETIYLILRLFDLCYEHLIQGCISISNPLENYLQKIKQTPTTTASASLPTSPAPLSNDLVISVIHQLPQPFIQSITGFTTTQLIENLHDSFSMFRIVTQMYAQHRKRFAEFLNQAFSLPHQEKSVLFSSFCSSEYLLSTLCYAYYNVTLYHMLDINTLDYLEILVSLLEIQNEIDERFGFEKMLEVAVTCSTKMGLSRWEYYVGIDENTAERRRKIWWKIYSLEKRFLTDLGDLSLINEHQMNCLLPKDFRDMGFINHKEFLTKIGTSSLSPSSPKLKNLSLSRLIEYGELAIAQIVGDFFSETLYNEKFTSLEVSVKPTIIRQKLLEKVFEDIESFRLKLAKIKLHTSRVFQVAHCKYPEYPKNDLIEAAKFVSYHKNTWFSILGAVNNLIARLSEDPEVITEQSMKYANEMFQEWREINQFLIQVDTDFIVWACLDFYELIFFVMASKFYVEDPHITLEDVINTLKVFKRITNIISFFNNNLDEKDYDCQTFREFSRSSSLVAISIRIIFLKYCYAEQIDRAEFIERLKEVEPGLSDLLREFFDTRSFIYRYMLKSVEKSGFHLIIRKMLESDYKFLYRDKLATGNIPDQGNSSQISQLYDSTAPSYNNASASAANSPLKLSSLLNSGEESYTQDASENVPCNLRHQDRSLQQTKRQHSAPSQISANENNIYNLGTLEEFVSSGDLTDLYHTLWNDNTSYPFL
Procedure, shortened: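 Each ungapped eight-base word and its reverse complement, pooled, received an E-score from the Universal PBM Analysis Suite. Underlying scans, normalised with masliner, recorded fluorescent anti-GST bound to GST-tagged yeast transcription factors. These were applied at about 100-200 nM to universal all-10-mer Agilent arrays double-stranded by primer extension.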

Row | Sequence | PBM E-score
1 | AAGTACAT | -0.0113
2 | GGAATGAA | 0.309
3 | TCCTGTCA | -0.0998
4 | CTAGGAAG | -0.214
5 | CCGTCGTA | 0.12
6 | CCTTAGAG | -0.308
7 | CCTATTCA | 0.0245
8 | AACTCCCC | 0.223
9 | TCTACTCA | -0.0894
10 | CCGTAATC | 0.0525
11 | CACTTGGC | 0.013
12 | TTATAAAA | 0.216
13 | GAACTGTC | 0.0611
14 | ACTCGCAG | -0.135
15 | AGGCGATG | 0.0723
16 | CGAACTCG | 0.17
17 | CCTCAGCA | -0.102
18 | GAGAGGAC | -0.0109
19 | TCTCCACA | -0.258
20 | CACTGCGG | 0.174
21 | CAGAGGCC | -0.177
22 | AACAATGC | -0.0311
23 | AAGACCCT | -0.184
24 | AAGGACCC | 0.0181
25 | GAAAATCC | 0.0302

Row | Sequence | PBM E-score
26 | ACGAGATA | -0.128
27 | GTATGGAC | 0.0423
28 | GCGCACGA | 0.0416
29 | GGATATCA | 0.149
30 | AGGATCCA | -0.0311
31 | AAGCTCAT | -0.00906
32 | CCTCACCC | 0.054
33 | GCTCTCAC | 0.0179
34 | GCAAATCA | -0.0772
35 | ATATCGTC | -0.007
36 | AACCTCTT | 0.0276
37 | AACGCTAC | -0.132
38 | ACGCTGCA | -0.227
39 | CCGAGAAC | 0.282
40 | AGGTCCGG | 0.311
41 | ACAGAACG | -0.104
42 | AAGTCCGC | 0.301
43 | CTCCGCTA | 0.11
44 | GCTACCGA | -0.0841
45 | CGCCTGCC | -0.0358
46 | ACCTTGTA | -0.248
47 | CACGAAAA | 0.0145
48 | GATCCCTA | -0.00857
49 | GTCGGTGA | -0.119
50 | AGGCCTAA | -0.0426

Row | Sequence | PBM E-score
51 | AACTCCCA | 0.0333
52 | ACACCTTG | -0.201
53 | CCCCTGTC | -0.31
54 | CCGTTTTC | 0.202
55 | ATAATATG | 0.162
56 | CGCTATCA | 0.0421
57 | GGATCGAA | 0.133
58 | CAACCGTA | -0.296
59 | AAATAGCG | -0.017
60 | GACGCACC | 0.0145
61 | CAAAACTA | -0.024
62 | AAGCTGCC | -0.0128
63 | AATCCTCA | -0.244
64 | GAATGTAC | 0.033
65 | CCCCATTA | -0.27
66 | ATTTACAC | -0.0644
67 | CCGGCCAG | 0.274
68 | AGATCTTC | 0.0237
69 | GATAGAAC | -0.037
70 | ATTGCTGA | -0.216
71 | ATCCGGAC | 0.355
72 | CTGTAATA | 0.0822
73 | ATAAAAAT | -0.133
74 | CCCGGGGA | 0.414
75 | CTCGAGCC | -0.114

Row | Sequence | PBM E-score
76 | AAGAACGC | -0.00283
77 | ATTGGTTG | -0.0354
78 | ATACTAGC | 0.151
79 | GATGACTA | -0.0876
80 | CAATGTAC | -0.259
81 | GGATCAAC | 0.151
82 | GATTTCCC | 0.143
83 | CGGCTAAC | 0.13
84 | ATTAGGAA | 0.102
85 | AACGTTAA | 0.0967
86 | AGCGGACT | -0.0134
87 | CCGCCTAA | -0.0431
88 | GCTGCCGA | 0.117
89 | GTACTCTA | -0.304
90 | ACAACGCT | -0.19
91 | AGTAGGTA | -0.115
92 | CTTTCGCC | -0.057
93 | GAACACTC | 0.19
94 | GATCGAAA | 0.015
95 | GAAGATTC | 0.168
96 | AAGAGTTC | -0.178
97 | GAAAGTTC | 0.088
98 | ATAAGGTA | -0.0443
99 | TCCTTCGA | 0.0546
100 | AGCTTGGA | -0.283

Row | Sequence | PBM E-score
101 | ACAGGTCC | 0.027
102 | AATATCAA | -0.0303
103 | CGGTAGAC | 0.091
104 | AATTGCGA | -0.0345
105 | AACGTCCT | -0.123
106 | AGACAAGA | 0.116
107 | TAACACAA | -0.0485
108 | CGCAGCAG | 0.0447
109 | GTGCCGAA | 0.253
110 | AGGCAGGA | -0.149
111 | AAGAACAG | -0.125
112 | AGTTGTAC | 0.0563
113 | CGAGAGTC | -0.239
114 | CGGCTTAC | 0.131
115 | AAGGAAAT | 0.00091
116 | ATCTGTCC | 0.236
117 | AGGAGGGG | -0.09
118 | GCACATTA | -0.00739
119 | AACTCGCA | -0.209
120 | AAATTGAA | -0.227
121 | CTCACGAA | -0.196
122 | CCTAGCCA | -0.182
123 | ATATGGGA | -0.0119
124 | AAGAGAAC | -0.104
125 | CAAAGAAG | -0.102

Row | Sequence | PBM E-score
126 | CCATGGAG | 0.0797
127 | GACAGCAC | 0.0832
128 | AGCGGGTC | -0.0457
129 | GACAGAAA | 0.0471
130 | TAGAGATA | -0.0203
131 | CCGACGTC | 0.156
132 | ACTCCTCT | -0.00039
133 | CTATTCTC | -0.0123
134 | CTGGGCAC | -0.116
135 | CATACTAA | -0.0484
136 | ACTGATAA | -0.103
137 | ACGTGGTC | -0.208
138 | AGTTAATG | -0.21
139 | ATTAATCC | 0.152
140 | CCCACGCA | 0.0166
141 | TCTGCTAA | -0.155
142 | ACACTTAA | -0.0417
143 | AACCCCGT | 0.181
144 | ATGTAGGG | 0.0264
145 | ACTGGATA | 0.105
146 | CTTGCTAC | -0.1
147 | TCGTTTCA | -0.00013
148 | CGAGTCGA | -0.055
149 | ACATTGCC | -0.0168
150 | CGGGAGAG | 0.0626

Row | Sequence | PBM E-score
151 | AGCGAATC | -0.0182
152 | GATACTCC | 0.0931
153 | GCCTAGAC | -0.209
154 | CAGTATAA | 0.108
155 | AAACAGTC | -0.227
156 | CTCGCAAC | -0.121
157 | GCCTACGC | -0.27
158 | AATAATAG | -0.218
159 | CATCGCGC | 0.12
160 | AAAGTATG | -0.0427
161 | CAAAAAAG | -0.103
162 | ACGTGGTA | -0.126
163 | GATACCAA | 0.147
164 | CTTGACGA | -0.0773
165 | AGCCCGTC | -0.0788
166 | AAAACGAA | 0.0577
167 | CGGATGCC | 0.222
168 | AATATTGG | 0.0207
169 | AATGGTTG | 0.119
170 | AGGCCGCG | 0.199
171 | CAAACTCG | 0.0644
172 | AGTATGAG | 0.0117
